Here are results for 1 molecule from patent US20260116946A1, “NOVEL CD200 FUSION PROTEINS” (DUCENTIS BIOTHERAPEUTICS LIMITED, priority 2022, published 2026).

Assay [1] has as its target T1, Recombinant Cyno CD200R, His-tagged (Creative Biomart CD200R1-3483C) (cynomolgus, UniProt G7NZT0 27-267).
T1 construct: His-tagged; also called cynomolgus CD200R; cynomolgus CD200R1
T1 sequence: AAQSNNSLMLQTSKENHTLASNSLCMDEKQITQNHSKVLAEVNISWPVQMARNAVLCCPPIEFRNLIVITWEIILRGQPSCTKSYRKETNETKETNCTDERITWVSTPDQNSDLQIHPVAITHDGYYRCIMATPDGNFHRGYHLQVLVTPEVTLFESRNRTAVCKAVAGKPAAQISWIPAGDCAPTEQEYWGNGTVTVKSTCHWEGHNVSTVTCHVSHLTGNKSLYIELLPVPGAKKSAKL
The experiment in a line: SPR (BIAcore T200), CD200-Fc captured on anti-human Fc, cyno CD200R in solution, 25 C. As for the experimental part: (§1) The experiments were performed on a GE Healthcare BIAcore T200. Human, cynomolgus and mouse CD200R proteins were purchased from Creative Biomart (CD200R1-320H, CD200R1-3483C, CD200R1-3280M). All measurements were performed in duplicate.
(§2) For human CD200 constructs: anti-human Fc (GE Healthcare) was covalently immobilized on a BIAcore CM5 sensor chip (Cytiva, BR100530) by amine coupling using a Cytiva kit (BR100839) following the manufacturer's instructions, targeting immobilization of 8,000-11,000 RU. CD200-Fc proteins were diluted to 0.5 μg/mL to 4 μg/mL in running Buffer (1×HBS-EP+pH7.4 (Cytiva BR100669), HEPES Buffered Saline pH 7.4 containing 3 mM EDTA and 0.05% v/v Surfactant P20) and flowed for 25 to 100 seconds at […] over the immobilized Anti-Human IgG Fc, with a stabilization time of 60 seconds. […]
(§3) For mouse CD200 constructs, muCD200R-Fc (Creative Biomart CD200R1-458M) diluted to 1 μg/mL in running buffer was flowed over the immobilized Anti-Human IgG Fc, with CD200 monomers serially diluted and flowed over captured CD200R. […] Data analysis: experimental sensorgrams were analyzed in BIAevaluation software (GE Healthcare). […] Closeness of fit was determined by algorithms provided by the manufacturer in the BIAevaluation software, and data accepted if the Chi² value was less than 10% of Rₘₐₓ, and the U value was less than or equal to 15.

In assay [2] the target is T1, Recombinant Cyno CD200R, His-tagged …. The experiment in a line: SPR (BIAcore), ARQ-234 captured via anti-human Fc, CynoCD200R as analyte (concentrations not given), 25 °C, 1:1 Binding fit; Run 1. Here is the method: as §1
(§4) For human CD200 constructs: anti-human Fc (GE Healthcare) was covalently immobilized on a BIAcore CM5 sensor chip (Cytiva, BR100530) by amine coupling using a Cytiva kit (BR100839) following the manufacturer's instructions, targeting immobilization of 8,000-11,000 RU. CD200-Fc proteins were diluted to 0.5 μg/mL to 4 μg/mL in running Buffer (1×HBS-EP+pH7.4 (Cytiva BR100669), HEPES Buffered Saline pH 7.4 containing 3 mM EDTA and 0.05% v/v Surfactant P20) and flowed for 25 to 100 seconds at […] over the immobilized Anti-Human IgG Fc, with a stabilization time of 60 seconds. Between 35 and 250 RUs of CD200-Fc were captured, with higher RUs used for cynomolgus CD200R binding experiments. […] Analysis temperature was 25° C. This was followed by regeneration of the surface with 30-90 second pulse of 3M MgCl₂ flowed at 30 μL/min flow rate followed by stabilization of the surface with 60 second flow of running buffer.
(§5) For mouse CD200 constructs, muCD200R-Fc (Creative Biomart CD200R1-458M) diluted to 1 μg/mL in running buffer was flowed over the immobilized Anti-Human IgG Fc, with CD200 monomers serially diluted and flowed over captured CD200R. Other details were as above. Data analysis: experimental sensorgrams were analyzed in BIAevaluation software (GE Healthcare). The curves obtained were fitted to 1:1 Langmuir binding model by setting Rmax and RI as local parameters. Rate equations using standard parameters (e.g. ligand concentration, time) were used for iterative curve fitting. Closeness of fit was determined by algorithms provided by the manufacturer in the BIAevaluation software, and data accepted if the Chi² value was less than 10% of Rₘₐₓ, and the U value was less than or equal to 15.
On the technique in general: SPR reads the build-up and loss of mass on a sensor chip optically.

For assay [3], the target named is T2, human CD200R on U937-CD200R cells (full length human CD200R, lentiviral transduction) (human, UniProt Q8TD46 25-348).
T2 construct: whole, on cells; also called CD200R-expressing U937 cells
T2 sequence (looked up): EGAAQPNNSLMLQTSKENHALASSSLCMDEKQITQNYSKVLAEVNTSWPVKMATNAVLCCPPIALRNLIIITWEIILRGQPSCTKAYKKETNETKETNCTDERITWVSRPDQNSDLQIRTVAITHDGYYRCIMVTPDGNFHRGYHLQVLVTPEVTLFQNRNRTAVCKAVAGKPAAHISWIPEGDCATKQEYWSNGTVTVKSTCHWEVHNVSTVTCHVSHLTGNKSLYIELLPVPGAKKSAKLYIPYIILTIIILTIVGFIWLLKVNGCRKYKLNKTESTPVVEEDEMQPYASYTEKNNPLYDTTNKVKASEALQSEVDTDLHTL
The experiment in a line: flow cytometry on U937-CD200R cells, 37 °C, anti-human IgG secondary; panel 4 hours. Here is the method:
(§6) Treatment with CD200-Fc proteins (50 μL) was performed starting from 10 μg/mL with 3-fold dilutions up to 10 concentrations with FACS buffer and incubated for 1-hour, 4-hours and 24-hours at 37° C. At the end of each time point, cells were collected and washed. 10 μg/mL of anti-human secondary antibody was added and incubated for 30 minutes at 4° C. Cells were washed post incubation and stained to check viability (1 μL dye per million cells per mL 1×PBS) for 20 minutes at 4° C. Cells were washed and fixed with Fixation buffer (100 μL per test) at 4° C. for 20 minutes. Post incubation, cells were washed and the pellet was re-suspended in FACS buffer (100 μL per test) for data acquisition on the flow cytometer.
(§7) For the 24-hour time point, treatment with CD200-Fc protein was performed with cell culture media. Wash step=addition of 200 μL FACS buffer and centrifugation at 1400 RPM.

For assay [4], the target named is T3, Recombinant Human CD200R, His-tagged (Creative Biomart CD200R1-320H) (human, UniProt Q8TD46 27-266).
T3 construct: His-tagged; also called human CD200 receptor
T3 sequence (looked up): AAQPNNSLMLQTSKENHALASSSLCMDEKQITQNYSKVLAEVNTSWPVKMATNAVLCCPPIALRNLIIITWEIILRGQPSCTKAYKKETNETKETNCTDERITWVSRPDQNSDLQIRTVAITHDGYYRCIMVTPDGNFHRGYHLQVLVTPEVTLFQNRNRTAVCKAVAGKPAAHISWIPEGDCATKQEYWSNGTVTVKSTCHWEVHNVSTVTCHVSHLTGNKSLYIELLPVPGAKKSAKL
The experiment in a line: SPR (BIAcore), ARQ-234 captured via anti-human Fc, HuCD200R as analyte (5 concentrations, not given), 25 °C, 1:1 Binding fit; Run 1. As for the experimental part: as §1, §4, §5

The target in assay [5] is T3, Recombinant Human CD200R, His-tagged …. The experiment in a line: SPR (BIAcore), ARQ-234 captured via anti-human Fc, HuCD200R as analyte (5 concentrations, not given), 25 °C, 1:1 Binding fit; Run 2. Here is the method:
as §1, §4, §5

The target in assay [6] is T2, human CD200R on U937-CD200R cells (full …). The experiment in a line: flow cytometry on U937-CD200R cells, 37 °C, cell culture media, anti-human IgG secondary; panel 24 hours. Here is the method:
as §6, §7
Background: Flow cytometry measures light scatter and fluorescence of single cells or particles in a stream.

The target of assay [7] is T3, Recombinant Human CD200R, His-tagged …. Briefly: SPR (BIAcore T200), CD200-Fc captured, human CD200R in solution. Here is the method:
as §1, §2, §3

Assay [8] addresses T1, Recombinant Cyno CD200R, His-tagged …. Briefly: SPR (BIAcore T200), CD200-Fc captured on anti-human Fc, cyno CD200R in solution, 25 C, mean of two runs. Here is the method:
as §1, §4, §5

For assay [9], the target named is T3, Recombinant Human CD200R, His-tagged …. The experiment in a line: SPR (BIAcore T200), CD200-Fc captured on anti-human Fc, human CD200R in solution, 25 C. As for the experimental part: as §1, §2, §3
The target is the same in assay [10]. Briefly: SPR (BIAcore T200), CD200-Fc captured on anti-human Fc, human CD200R in solution, 25 C, mean of two runs. As for the experimental part: as §1, §4, §5
Assay [11] addresses T1, Recombinant Cyno CD200R, His-tagged …. Briefly: SPR (BIAcore), ARQ-234 captured via anti-human Fc, CynoCD200R as analyte (concentrations not given), 25 °C, 1:1 Binding fit; Run 2. As for the experimental part: as §1, §4, §5

B1: ARQ-234 (mutated CD200-Fc fusion protein; human CD200 K130Y, I131Y directly fused to IgG4 Fc S228P, M428L, N434S) (Fc fusion)
chain: QVQVVTQDEREQLYTPASLKCSLQNAQEALIVTWQKKKAVSPENMVTFSENHGVVIQPAYKDKINITQLGLQNSTITFWNITLEDEGCYMCLFNTFGFGYYSGTACLTVYVQPIVSLHYKFSEDHLNITCSATARPAPMVFWKVPRSGIENSTVTLSHPNGTTSVTSILHIKDPKNQVGKEVICQVLHLGTVTDFKQTVNKGPP[here human IgG4 Fc with changes without letters]
notes: also called mutant CD200-Fc
Broadly, the t½ is the time in which the quantity being followed falls by half. A word on the Kd: it is the free concentration of one partner at which half of the binding sites on the other are occupied at equilibrium, for simple one-to-one binding. By koff is commonly meant the rate constant with which the complex falls apart. The term kon denotes the rate constant with which the complex forms. As usually defined, the EC50 (read off the curve) is the concentration that produces a half-maximal response. Read a high EC50 (read off the curve) as weaker potency. Consider B1, for which the “t½” value in [1] is 0.283 min; in assay [9] it was 24.6 min. The Kd in [2] turned out to be 266 nM; in assay [4] it was 2.21 nM; in [5], 2.02 nM; in assay [8], 252 nM; in [10], 2.11 nM; in assay [11] it was 238 nM. Further, the koff in assay [2] is 0.0405 s⁻¹; in assay [4] it was 0.000487 s⁻¹; in [5], 0.000448 s⁻¹; in assay [8], 0.04 s⁻¹; in assay [10], 0.000467 s⁻¹; in assay [11], 0.0395 s⁻¹. Moreover, the kon in assay [2] is 152000 M⁻¹ s⁻¹; in assay [4] it was 221000 M⁻¹ s⁻¹; in assay [5], 222000 M⁻¹ s⁻¹; in [8] it was 159000 M⁻¹ s⁻¹; in assay [10] it was 222000 M⁻¹ s⁻¹; in [11] it was 166000 M⁻¹ s⁻¹. Further, the “EC50 (read off the curve)” value was ~0.7 µg/mL in assay [3] and ~0.6 µg/mL in [6]. In addition, in [7], the “fold greater affinity than wild-type CD200-Fc (DS-155)” value was ~84 fold.
